Laboratory results as given in patent publication EP4702986A1, “POLYPEPTIDE AND USE THEREOF” (Biocells (Beijing) Biotech Co., Ltd., priority 2023, dated 2024).
Where a chain is given by its changes, count along the chain named. pEC50: −log10 of the molar value. At least one structure is not confirmed: it was looked up by name or label, or the drawing left a doubt. Numbered stars: 1 amine (or outer) side, 2 acyl side, 3 side chain; on linkers, the order of the positions; unused ones are H or OH. Bridge positions count the residues as written; N and C are the ends. Side chains are listed from the residue outwards. Peptide text beside a SMILES is read from it. * marks the point of attachment. C18 diacid = O=C(O)CCCCCCCCCCCCCCCCC(=O)*; γGlu = O=C(O)[C@H](CCC(=O)[*:2])N[*:1]; Stearoyl = CCCCCCCCCCCCCCCCCC(=O)*; Palmitoyl = CCCCCCCCCCCCCCCC(=O)*; Fumaroyl = O=C(O)/C=C/C(=O)*; Suc = O=C(CCC(=O)[*:2])[*:1]; AEEA = NCCOCCOCC(=O)O

Legend:
Type in all cases: cell-based
[1] = biological target: T1, dog ETB receptor (Canis lupus familiaris, UniProt P56497); experiment: Determination of EC50s of polypeptides against dog ETB receptor; conditions: Table 7, dog ETB receptor; read-out: DETAR Agonist Activity EC50
T1 construct: expressed in transfected cells
T1 sequence (P56497 27-442): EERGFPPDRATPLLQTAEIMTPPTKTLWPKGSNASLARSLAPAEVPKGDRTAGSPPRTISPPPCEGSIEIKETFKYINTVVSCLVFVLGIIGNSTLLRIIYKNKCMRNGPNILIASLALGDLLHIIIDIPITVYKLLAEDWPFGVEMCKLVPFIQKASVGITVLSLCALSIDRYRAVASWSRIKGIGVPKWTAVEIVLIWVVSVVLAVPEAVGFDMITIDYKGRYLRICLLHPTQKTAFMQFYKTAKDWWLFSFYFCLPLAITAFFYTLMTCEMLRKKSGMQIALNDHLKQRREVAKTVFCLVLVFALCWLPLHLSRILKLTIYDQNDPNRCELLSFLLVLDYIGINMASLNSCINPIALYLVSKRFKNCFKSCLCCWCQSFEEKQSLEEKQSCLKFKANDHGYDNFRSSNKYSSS
Protocol: (§1) 293T-17 cells were seeded at a density of 650,000 cells per well in a 6-well plate and cultured overnight in an incubator at 37°C and 5% CO2. Afterward, the cells were transfected with an expression vector, PCDNA3.1-hETB which contained a human ETB receptor gene, at a plasmid concentration of 2.5 µg per well. The cells were further cultured for 48 hours, and green fluorescence expression was observed under a fluorescence microscope. The cells were then digested with trypsin and counted. The activity of compounds on the human ETB receptor was determined with the IP-One Gq kit from Cisbio Bioassays. The cells were suspended in Stim Buffer provided in the kit and the cell suspension was added to a 96-well detection plate at 7 µL cell suspension (containing 30,000 cells) per well. The polypeptides to be tested (prepared according to the Preparation Example of the invention) were diluted in Stim B to obtain a gradient of 11 concentration points. For each concentration point, the polypeptides to be tested were dissolved in Stim B to be at a concentration of 2×, and added at 7 µL to the test cells, while 7 µL of PBS solution was added to the cells in the negative control wells. The plate was sealed and incubated at 37°C for 1 hour in a cell culture incubator. Detection wells, positive control wells containing human endothelin ET1 (ET1: […] (C1-C15,C3-C11)), and PBS control wells were each added with 3 µL of IP1 d2 working solution and 3 µL of IP1 Tb cryptotate Antibody working solution. The plate was then sealed and incubated in the dark at room temperature (25°C±5°C) for 1 hour. The plate seal was removed, and the […] at 665 nm and 620 nm was measured with an ID5 microplate reader. The ratio of the acceptor emission signal to the donor emission signal, i.e., (signal at 665 nm/signal at 620 nm)×10^4, was calculated for each well. With F representing the average value of values of signal at 665 nm/signal at 620 nm for the test samples at various concentrations, a scatterplot was plotted, where the abscissa represented the F value, and the ordinate represented the logarithmic value of the peptide concentration. A curve was fitted with an appropriate method to calculate EC50 values of the polypeptides against the human ETB receptor. Another method was provided for fitting a curve where activation rate of the test polypeptides at each concentration relative to the positive control sample human endothelin ET1 was calculated first with the method in Example 1, and a scatterplot was plotted, where the abscissa represented the activation rate, and the ordinate represented the logarithmic value of the polypeptide concentration. A curve was fitted with an appropriate method to calculate the EC50 values of the polypeptides against the human ETB receptor.
The process is the same as that in Example 3, except that the transfected plasmid was expression vector PCDNA3.1-DETB which contained a dog ETB receptor gene. EC50 values of the polypeptide against the dog ETB receptor were calculated (see Figures 8-10). The sequence of the dog endothelin receptor B (NCBI accession number: NM_001010943.2).

[2] = biological target: T2, mouse ETB receptor (Mus musculus, UniProt P48302); experiment: Determination of EC50s of polypeptides against mouse ETB receptor; conditions: Table 9, mouse ETB receptor; read-out: DETAR Agonist Activity EC50
T2 construct: expressed in transfected cells
T2 sequence (P48302 27-442): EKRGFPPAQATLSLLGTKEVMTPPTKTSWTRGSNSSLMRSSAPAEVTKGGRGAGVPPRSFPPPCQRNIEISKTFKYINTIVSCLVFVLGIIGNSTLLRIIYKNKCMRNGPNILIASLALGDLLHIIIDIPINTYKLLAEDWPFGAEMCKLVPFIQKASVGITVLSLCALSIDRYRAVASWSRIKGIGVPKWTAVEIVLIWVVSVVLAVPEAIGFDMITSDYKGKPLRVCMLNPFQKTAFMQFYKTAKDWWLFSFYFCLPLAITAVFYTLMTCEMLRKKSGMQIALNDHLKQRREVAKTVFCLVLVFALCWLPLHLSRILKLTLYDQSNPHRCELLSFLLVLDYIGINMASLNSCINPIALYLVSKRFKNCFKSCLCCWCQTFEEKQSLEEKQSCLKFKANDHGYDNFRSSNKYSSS

[3] = biological target: T3, human ETB receptor (Homo sapiens, UniProt P24530); experiment: Determination of EC50 of polypeptides against human ETB receptor (IP-One Gq kit); conditions: 293T-17 cells transfected with PCDNA3.1-hETB; read-out: hETBR agonist activity EC50/nM
T3 construct: expressed in transfected cells; host or cells: 293T-17 cells, transient transfection
T3 sequence (P24530 27-442): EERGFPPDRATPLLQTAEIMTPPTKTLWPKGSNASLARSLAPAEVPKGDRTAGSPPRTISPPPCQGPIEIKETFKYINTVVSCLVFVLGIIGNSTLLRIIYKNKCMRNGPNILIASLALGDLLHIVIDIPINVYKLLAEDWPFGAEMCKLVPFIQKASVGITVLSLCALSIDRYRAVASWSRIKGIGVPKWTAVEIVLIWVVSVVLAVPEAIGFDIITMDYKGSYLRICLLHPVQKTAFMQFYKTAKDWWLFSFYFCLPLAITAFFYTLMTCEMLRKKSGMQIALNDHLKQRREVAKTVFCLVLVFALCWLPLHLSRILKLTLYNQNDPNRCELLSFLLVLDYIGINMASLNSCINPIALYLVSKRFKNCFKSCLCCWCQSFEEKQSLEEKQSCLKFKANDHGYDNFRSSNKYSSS
Protocol: as §1

[4] = biological target: T4, rat ETB receptor (Rattus norvegicus, UniProt P21451); experiment: Determination of EC50s of polypeptides against rat ETB receptor; conditions: Table 8, rat ETB receptor; read-out: DETAR Agonist Activity EC50
T4 construct: expressed in transfected cells
T4 sequence (P21451 27-442): T2 sequence (P48302 27-442) with L12P, G52V, N67K, S71N, T133A, E139G, M216V, V265I, H330Q
Protocol: as §1
The process is the same as that in Example 3, except that the transfected plasmid was expression vector PCDNA3.1-RETB which contained a rat ETB receptor gene. EC50 values of the polypeptides against the rat ETB receptor were calculated (see Figures 11-13). The sequence of the rat ETB receptor (NCBI accession number: X57764.1).

Row | Structure (SMILES) | pEC50 [1] | pEC50 [2] | EC50 [3] | pEC50 [4]
1 | CCCCCCCCCCCCCCCC(=O)NCCOCCOCC(=O)NCCOCCOCC(=O)N[C@@H](CCC(=O)NCCCC[C@H](NC(=O)[C@H](Cc1c[nH]cn1)NC(=O)[C@H](C)NC(=O)[C@H](Cc1ccccc1)NC(=O)[C@H](Cc1ccc(O)cc1)NC(=O)[C@@H](NC(=O)[C@H](C)NC(=O)[C@H](CCC(=O)O)NC(=O)[C@H](CCC(=O)O)NC(=O)[C@H](CC(=O)O)NC(=O)/C=C/C(=O)O)C(C)C)C(=O)N[C@@H](CC(=O)O)C(=O)N[C@H](C(=O)N[C@H](C(=O)N[C@@H](Cc1c[nH]c2ccccc12)C(=O)O)[C@@H](C)CC)[C@@H](C)CC)C(=O)O [BX-70] (Fumaroyl-DEEAVYFAHK([γGlu-AEEA-AEEA-Palmitoyl])DIIW-OH) | 7.19 | 7.51 | 19.1 nM | –
2 | CC[C@H](C)[C@H](NC(=O)[C@H](CC(=O)O)NC(=O)[C@H](CCCCNC(=O)CC[C@H](NC(=O)COCCOCCNC(=O)COCCOCCNC(=O)CCCCCCCCCCCCCCCCC(=O)O)C(=O)O)NC(=O)[C@H](Cc1c[nH]cn1)NC(=O)[C@H](C)NC(=O)[C@H](Cc1ccccc1)NC(=O)[C@H](Cc1ccc(O)cc1)NC(=O)[C@@H](NC(=O)[C@H](C)NC(=O)[C@H](CCC(=O)O)NC(=O)[C@H](CCC(=O)O)NC(=O)[C@H](CC(=O)O)NC(=O)CCC(=O)O)C(C)C)C(=O)N[C@H](C(=O)N[C@@H](Cc1c[nH]c2ccccc12)C(=O)O)[C@@H](C)CC [BX-74] (Suc-DEEAVYFAHK([γGlu-AEEA-AEEA-C18 diacid])DIIW-OH) | 6.28 | – | – | 6.89
3 | CC[C@H](C)[C@H](NC(=O)[C@@H](NC(=O)[C@H](CC(=O)O)NC(=O)[C@H](CC(C)C)NC(=O)[C@H](Cc1c[nH]cn1)NC(=O)[C@H](C)NC(=O)[C@H](Cc1ccccc1)NC(=O)[C@H](Cc1ccc(O)cc1)NC(=O)[C@@H]1CCCCNC(=O)CC[C@H](NC(=O)[C@H](CC(=O)O)NC(=O)CCC(=O)O)C(=O)N[C@@H](CCC(=O)O)C(=O)N[C@@H](C)C(=O)N1)C(C)C)C(=O)N[C@@H](Cc1c[nH]c2ccccc12)C(=O)O [BX-76] (Suc-DEEAKYFAHLDVIW-OH; lactam 2-5) | 7.51 | – | 20 nM | 6.30
4 | CC[C@H](C)[C@H](NC(=O)[C@H](CC(=O)O)NC(=O)[C@H](CCCCNC(=O)CC[C@H](NC(=O)COCCOCCNC(=O)COCCOCCNC(=O)CCCCCCCCCCCCCCCCC(=O)O)C(=O)O)NC(=O)[C@H](Cc1c[nH]cn1)NC(=O)[C@H](C)NC(=O)[C@H](Cc1ccccc1)NC(=O)[C@H](Cc1ccc(O)cc1)NC(=O)[C@@H](NC(=O)[C@H](C)NC(=O)[C@H](CCC(=O)O)NC(=O)[C@H](CCC(=O)O)NC(=O)[C@H](CC(=O)O)NC(=O)/C=C/C(=O)O)C(C)C)C(=O)N[C@H](C(=O)N[C@@H](Cc1c[nH]c2ccccc12)C(N)=O)[C@@H](C)CC [BX-86] (Fumaroyl-DEEAVYFAHK([γGlu-AEEA-AEEA-C18 diacid])DIIW-NH2) | 6.39 | – | – | –
5 | CC[C@H](C)[C@H](NC(=O)[C@@H](NC(=O)[C@H](CC(=O)O)NC(=O)[C@H](CC(C)C)NC(=O)[C@H](Cc1c[nH]cn1)NC(=O)[C@H](C)NC(=O)[C@H](Cc1ccccc1)NC(=O)[C@H](Cc1ccc(O)cc1)NC(=O)[C@@H]1CCCCNC(=O)CC[C@H](NC(=O)[C@H](CC(=O)O)NC(=O)/C=C/C(=O)O)C(=O)N[C@@H](CCC(=O)O)C(=O)N[C@@H](C)C(=O)N1)C(C)C)C(=O)N[C@@H](Cc1c[nH]c2ccccc12)C(=O)O [BX-99] (Fumaroyl-DEEAKYFAHLDVIW-OH; lactam 2-5) | 7.76 | – | 33.1 nM | 7.72
6 | CCCCCCCCCCCCCCCCCC(=O)N[C@@H](CCC(=O)NCCOCCOCC(=O)NCCCC[C@H](NC(=O)[C@H](Cc1c[nH]cn1)NC(=O)[C@H](C)NC(=O)[C@H](Cc1ccccc1)NC(=O)[C@H](Cc1ccc(O)cc1)NC(=O)[C@@H](NC(=O)[C@H](C)NC(=O)[C@H](CCC(=O)O)NC(=O)[C@H](CCC(=O)O)NC(=O)[C@H](CC(=O)O)NC(=O)/C=C/C(=O)O)C(C)C)C(=O)N[C@@H](CC(=O)O)C(=O)N[C@H](C(=O)N[C@H](C(=O)N[C@@H](Cc1c[nH]c2ccccc12)C(=O)O)[C@@H](C)CC)[C@@H](C)CC)C(=O)O [BX-223] (Fumaroyl-DEEAVYFAHK([AEEA-γGlu-Stearoyl])DIIW-OH) | – | 7.10 | 120 nM | 7.79
7 | CC[C@H](C)[C@H](NC(=O)[C@H](CC(=O)O)NC(=O)[C@H](CCCCN)NC(=O)[C@H](Cc1c[nH]cn1)NC(=O)[C@H](C)NC(=O)[C@H](Cc1ccccc1)NC(=O)[C@H](Cc1ccc(O)cc1)NC(=O)[C@@H](NC(=O)[C@H](C)NC(=O)[C@H](CCC(=O)O)NC(=O)[C@H](CCC(=O)O)NC(=O)[C@H](CC(=O)O)NC(=O)/C=C/C(=O)O)C(C)C)C(=O)N[C@H](C(=O)N[C@@H](Cc1c[nH]c2ccccc12)C(=O)O)[C@@H](C)CC [F-BX-5] (Fumaroyl-DEEAVYFAHKDIIW-OH) | – | 7.89 | 7.61 nM | 6.03
